For 34 variants, self-cleavage results are on record in the RNAGym collection of RNA variant scans (doi:10.1093/nar/gkz1192).

Sequences and labels used below:
B1: CPEB3 Ribozyme (parent)
chain: UAACAGGGGGCCACAGCAGAAGCGUUCACGUCGCAGCCCCUGUCAGAUUCUGGUGAAUCUGCGAAUUCUGCUGUAUAUCUC

Read counts are not given, so values of variants with three or more changes are uncertain.

The variants in the series derive from B1. The series can be described thus: self-cleavage, relative activity (ratio to wild type); higher = more cleavage; in vitro, sequencing. In short, it runs like this: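 Relative activity compares each variant's cleaved/total read fraction with that of the unmutated ribozyme. To get these fractions, barcoded CPEB3 ribozyme libraries from rounds of error-prone PCR were transcribed with T7 RNA polymerase for 5 hours at 37°C and then given 15 min of DNase I treatment before EDTA was added. The RNAs were reverse transcribed with template switching and sequenced on Illumina, and DNA sequencing linked barcodes to variants. A minimum of 5 reads applied, and three batches were averaged.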
As for UAACAGGGGGCCACAGCUGAAGCGUUCACGUCGCAGCCCCUGUCAGAUUCUGGUGAAUCUGUGAAUCCUGCUGUAUAUCUC [A18U C62U U67C], the self-cleavage was 0.15. In the case of UAACAGGGGGCCACAGCUGAAGCGUUCGCGUCGCAGCCCCCGUCAGAUUCGGGUGAAUCUGCGAAUUCUGCAGUAUAUCUC [A18U A28G U41C U51G U72A], the self-cleavage came to 0.09. For UAACAGGGGGCCACAGCUGAAGCGUUCACGUCGCAGCCCCUGUCAGGUUCUGGAGAAUCUGCGAAUUCUGCUGUAUAUCUC [A18U A47G U54A], the self-cleavage stood at 0.54. Then UAACAGGGGGCCACAGCUGAAGCAUUCACGUCGCAGCCCCUGUCAGAUUCUGGUGGAUCUGCGAAUUCUGCUGUAUAUCCC [A18U G24A A56G U80C], with 0.21; and UAACAGGGGGCCACAGCUGAAGUGUCCACGUCGCACCCCCUGUCAGAUUCUGGUGAAUCUGCGAAUUCCGCUGUAUAUCUC [A18U C23U U26C G36C U69C], with 0.06.

UAACAGGGGGCCACAGCUGAAGCGUUCACGUUGCAGCCCCUGCCAGAUUCUGGUGAAUCUGCGAAUUCUGCUGCAUAUCUC [A18U C32U U43C U74C]: the self-cleavage amounted to 0.13. Then UAACAGGGGGCCACAGCUGAAGCGUUCACGUCGCAGCCCCUGUCAGAUUCUGGUGAAUCUGCGAUUUCUGCUGUAUACCUC [A18U A65U U78C], with 0.2; and UAACAGGGGGCCACAGCUGAAGCGUUCACGUCGCAGCCCCUGUAAGAUUCUGGUGAAUCUGCGAAUUCUGCUGUGUAUCUC [A18U C44A A75G], with 0.1.

For UAACAGGGGGCCACAGCUGAAGCGUUCGCGUCCCAGCCCCUGUCAGAUUCUGGUGAAUCUGCGAAUUCGGCUGUAUGUCCC [A18U A28G G33C U69G A77G U80C], the self-cleavage came to 0.05. As for UAACAGGGGGCCACAGCUGAAGCGUUCACGUCGAAGCCCCUGUCAGAUUCUGGUGAAUCUGCGAGUUCUGCUGUAUAUCUC [A18U C34A A65G], the self-cleavage stood at 0.17.

Turning to UAACAGGGGGCCACAGCUGAAGCGUUCACGUCGCAGCCCCUGUCAGAUUCUGGUGAAUCUGCGAGUUCAGCUGUAUACCUC [A18U A65G U69A U78C], the self-cleavage amounted to 0.57.

For UAACAGGGGGCCACAGCUGAAGCGUUCACGUCGCGGCCCCUGUCAGAUUCUAGCGAAUCUGCGAAUUCAGCUGUAUAUCUC [A18U A35G G52A U54C U69A], the self-cleavage was found to be 1.31. The value for UAACAGGGGGCCACAGCUGAAACGUUCACGCCGCAGCCCCUGUCAGAUUCUGGUGAAUCUGCGAAUUCUGCUGUAUAUCUC [A18U G22A U31C] was 0.04; that for UAACAGGGGGCCACAGCUGAAGCGUUCACGUCGCAGCCCCUGUCAGGUUCUGGCGAACCUGCGAAUUCUGAUGUAUAUCUC [A18U A47G U54C U58C C71A] was 0.17; that for UAACAGGGGGCCACAGCUGAAGCGUUCACGUCGCAGCCCCUGUCAGAUUCUGGUGGACCUGUGAUUUCUGCUGUCUAUCUC [A18U A56G U58C C62U A65U A75C] was 0.04. Then UAACAGGGGGCCACAGCUGAAGCGUUCACGUCGCAGCCUCUGUCAGAUUCUGCUGAGUCCGCGACUUCUGCUGUAUAUCUC [A18U C39U G53C A57G U60C A65C], with 0; and UAACAGGGGGCCACAGCUGAAGCGUUCGCGUCCCAGCCCCUGUCAGAUUCUGGUGAAUCUGCGAAUUCUGCUGUAUAUCCC [A18U A28G G33C U80C], with 0.05; and UAACAGGGGGCCACAGCUGAAGCGUUCACGUCGCAACCCCUGUCAGGCUCUGGUGGAUCAGCGAAUUCUGCUGUAUAUCUC [A18U G36A A47G U48C A56G U60A], with 0.07. The value for UAACAGGGGGCCACAGCUGAAGCGUUCACGUCGCAGCUCCUGUCAGAGCCUGGUGAAUCUGCGAAUUCUGCUGUAUAUCUC [A18U C38U U48G U49C] was 0.14; that for UAACAGGGGGCCACAGCUGAAGCGUUCACUUCGCAGCCCCCGUCAGAUUCUGGUGAAUCUGCGAAUUCUGCUGUAUAUCUC [A18U G30U U41C] was 0.04. In the case of UAACAGGGGGCCACAGCUGAAGCGUUCACGUCGCAGCCCCUGUGAGAUUCUGGUGAGUCUGCGAUUUCUGCUGUAUAUCUC [A18U C44G A57G A65U], the self-cleavage turned out to be 0.19.

In the case of UAACAGGGGGCCACAGCUGAAGCGUUCACGUCUCAGCCCCUGUCAGAUUCUGGUGAAUCUGCGAACUCUGCUGUAUAUCUC [A18U G33U U66C], the self-cleavage worked out at 0.37. The value for UAACAGGGGGCCACAGCUGAAGCGUUCACGUCGCAGCCCCUGUCAGAUUCUGGUGGACCUGCGAAUUCUGCUGUCUAUCUC [A18U A56G U58C A75C] was 0.17; that for UAACAGGGGGCCACAGCUGAAGCGUUCGCGUCGCAGCCCCUGUCAGAUUCUGGUGAGUCUGCGAAUACUGCUGUAUAUCUC [A18U A28G A57G U67A] was 0.1. Then UAACAGGGGGCCACAGCUGAAGCGUUCACGUCGCAGCCCCUGUCAGGUUCUGGUGAAUCUGCGAAUUCUGCUGUGUAUCUC [A18U A47G A75G], with 0.3; and UAACAGGGGGCCACAGCUGAAGCGUUCGCGUCGCAGCCCCUGUCAGAUUCUGGUGAAUCUGCGAAUCCUGCUGUAUAUCUC [A18U A28G U67C], with 0.11.

As for UAACAGGGGGCCACAGCUGAAGCGUUCACGUCGCAGCCCCUGUCAGUUUCUGGUGAAUCUGCGAAUCCUGCUGUAUAUCUC [A18U A47U U67C], the self-cleavage turned out to be 0.04.

UAACAGGGGGCCACAGCUGAAGCGUUCACGUCGCAGCCCCUGUCAGAUUCUGGUGAGUCUGCGAAUCCUGCUGUAAAUCUC [A18U A57G U67C U76A]: the self-cleavage was 0.21. Then UAACAGGGGGCCACAGCUGAAGCGUUCACGUCGCGGACCCCGUCAGAUUCUGGUGAAUCUACGAAUUCUGCUGUAUAUCUC [A18U A35G C37A U41C G61A], with 0.24; and UAACAGGGGGCCACAGCUUAAGCGUUCACGUCGCAGCCCCUGUCCGAUUCUGGUGAAUCUGCGAAUUCUGCUGUAUAUCUC [A18U G19U A45C], with 0.13; and UAACAGGGGGCCACAGCUGAAGCGUUCACGUCGCAGCCCCUGUCAGAUUCUGGUGAAUCUGCGAAUUCUGCUGUAUUUCAC [A18U A77U U80A], with 0.81. Consider UAACAGGGGGCCACAGCUGAAGCGUUCACGUCGCAGCCCCUGUCAGAUUCUGGUGGAUCUGCGAAUUCAGCUGUAUAUCUC [A18U A56G U69A], for which the self-cleavage amounted to 1.18.

As to UAACAGGGGGCCACAGCUGAAGCGUUCACGUCGCAGCCCCUGUUAGACUCUGGCGAAUCUGCGAAUUCUGCUGUAUUUCUC [A18U C44U U48C U54C A77U], the self-cleavage stood at 0.09. On to UAACAGGGGGCCACAGCUGAAGCGUUCACGUCACAGCCCCUGUCAGAUUCUCGAGAAUCCGCGUAUUCCGCUGUAUAUCUC [A18U G33A G52C U54A U60C A64U U69C], for which the self-cleavage stood at 0.08.
